10 variants from the supplement of paper PMC12217912 can be followed below.

B1: TEV protease; numbered along this chain (parent)
chain: MGESLFKGPRDYNPISSSICHLTNESDGHTTSLYGIGFGPFIITNKHLFRRNNGTLVVQSLHGVFKVKDTTTLQQHLVDGRDMIIIRMPKDFPPFPQKLKFREPQREERICLVTTNFQTKSMSSMVSDTSCTFPSGDGIFWKHWIQTKDGQCGSPLVSTRDGFIVGIHSASNFTNTNNYFTSVPKNFMELLTNQEAQQWVSGWRLNADSVLWGGHKVFMVKPEEPFQPVKEATQL

Variants of B1 are the subject of the test. In words: raw area under fraction-flipped curve 0-4 h after induction (AUC4h, not background-subtracted), DNA-recorder readout of cleavage of the substrate (dimensionless); higher = more cleavage of the substrate by the protease variant. Conditions: temperature: 34 °C; time window: 0-4 h after rhamnose induction.

This is one part of the list. Sequences were assembled here from the parent chain. Values near 0.05 are background.
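Further: Bxb1 expression induced with 0.2% (w/v) L-rhamnose at OD600 near 0.5, cultures sampled hourly, flipped fraction per protease–substrate barcode pair counted by paired-end Illumina sequencing.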

As to MGESLFKGPRDYNPISSSICHLTNESDGHTTSLYGIGFGPFIITNKHLFRYNNGTLVVQSLHGVFKVKDTTTLQQHLVDGRDMIIIRMPKDFPPFPQKLKFREPQREERICLVTTNFQTKSMSSMVSDTSCTFPSGDGIFWKHWIQTKDGQCGSPLVSTRDGFIVGIHSASNFTNTNNYFTSVPKNFMELLTNQEAQQWVSGWRLNADSVLWGGHKVFMVKPEEPFQPVKEATQL [R51Y], the “area with substrate ENLDFQS” value is 0.0739, the “area with substrate ENLFFQS” value was 0.0682, the “area with substrate ENLGFQS” value turned out to be 0.0893 and the “area with substrate ENLPFQS” value was 0.0502. Further, the “area with substrate ENLQFQS” value worked out at 0.077, the “area with substrate ENLRFQS” value came to 0.0772, the “area with substrate ENLSFQS” value came out at 0.0767 and the “area with substrate ENLVFQS” value worked out at 0.105. Besides, the “area with substrate ENLWFQS” value came to 0.071.

Regarding MGESLFKGPRDYNPISSSICHQTNESDGHTTSLYGIGFGPFIITNKHLFRRNNGTLVVQSLHGVFKVKDTTTLQQHLVDGRDMIIIRMPKDFPPFPQKLKFREPQREERICLVTTNFQTKSMSSMVSDTSCTFPSGDGIFWKHWIQTKDGQCGSPLVSTRDGFIVGIHSASNFTNTNNYFTSVPKNFMELLTNQEAQQWVSGWRLNADSVLWGGHKVFMVKPEEPFQPVKEATQL [L22Q], the “area with substrate ENLDFQS” value worked out at 0.0597, the “area with substrate ENLFFQS” value stood at 0.0481, the “area with substrate ENLHFQS” value was 0.0607 and the “area with substrate ENLIFQS” value was found to be 0.0463. Moreover, the “area with substrate ENLKFQS” value was 0.048, the “area with substrate ENLLFQS” value amounted to 0.0377, the “area with substrate ENLNFQS” value was 0.0545 and the “area with substrate ENLPFQS” value came to 0.045. For the same variant, the “area with substrate ENLQFQS” value turned out to be 0.03, the “area with substrate ENLRFQS” value was found to be 0.0462, the “area with substrate ENLSFQS” value was determined as 0.0462 and the “area with substrate ENLVFQS” value was found to be 0.0444. The “area with substrate ENLWFQS” value was 0.0419.

As to MGESLFKGPRDYNPISSSICHLTNESDGHTTSLYGIGFGPFIITNKHLFRRNNGTLVVQSLHGVFKVKDTTTLQQHLVDGRDMIIIRMPKDFPPFPQKLKFREPQREERICLVTTNFQTKSMSSMVSDTSCTFPSGDGIFWKHWIQTKDGQCGSPLVSTRDGFIVGIHSASNFTNTNNYFTSVPKNFMELLTNQEAQQWVSGWRLNADSVLWGGHKVFMVKPSEPFQPVKEATQL [E223S], the “area with substrate ENLCFQS” value amounted to 0.0738, the “area with substrate ENLDFQS” value was 0.065, the “area with substrate ENLEFQS” value came out at 0.084 and the “area with substrate ENLFFQS” value was 0.0922. The “area with substrate ENLHFQS” value is 0.0802, the “area with substrate ENLKFQS” value came to 0.0867, the “area with substrate ENLPFQS” value worked out at 0.0635 and the “area with substrate ENLQFQS” value was 0.044. Also, the “area with substrate ENLRFQS” value was determined as 0.083, the “area with substrate ENLSFQS” value stood at 0.0681 and the “area with substrate ENLWFQS” value was found to be 0.0709.

Consider MGESLSKGPRDYNPISSSICHLTNESDGHTTSLYGIGFGPFIITNKHLFRRNNGTLVVQSLHGVFKVKDTTTLQQHLVDGRDMIIIRMPKDFPPFPQKLKFREPQREERICLVTTNFQTKSMSSMVSDTSCTFPSGDGIFWKHWIQTKDGQCGSPLVSTRDGFIVGIHSASNFTNTNNYFTSVPKNFMELLTNQEAQQWVSGWRLNADSVLWGGHKVFMVKPEEPFQPVKEATQL [F6S], for which the “area with substrate ENLDFQS” value came to 0.0754, the “area with substrate ENLFFQS” value came to 0.129, the “area with substrate ENLIFQS” value amounted to 0.114 and the “area with substrate ENLNFQS” value is 0.0715. The “area with substrate ENLPFQS” value came to 0.0668 and the “area with substrate ENLSFQS” value came to 0.0811.

As for MGLSLFKGPRDYNPISSSICHLTNESDGHTTSLYGIGFGPFIITNKHLFRRNNGTLVVQSLHGVFKVKDTTTLQQHLVDGRDMIIIRMPKDFPPFPQKLKFREPQREERICLVTTNFQTKSMSSMVSDTSCTFPSGDGIFWKHWIQTKDGQCGSPLVSTRDGFIVGIHSASNFTNTNNYFTSVPKNFMELLTNQEAQQWVSGWRLNADSVLWGGHKVFMVKPEEPFQPVKEATQL [E3L], the “area with substrate ENLDFQS” value turned out to be 0.0576, the “area with substrate ENLEFQS” value worked out at 0.0519, the “area with substrate ENLFFQS” value worked out at 0.0742 and the “area with substrate ENLHFQS” value came out at 0.0587. In addition, the “area with substrate ENLIFQS” value came to 0.0756, the “area with substrate ENLNFQS” value was 0.0638, the “area with substrate ENLPFQS” value stood at 0.0591 and the “area with substrate ENLSFQS” value was found to be 0.0631. In addition, the “area with substrate ENLVFQS” value was determined as 0.0648 and the “area with substrate ENLWFQS” value worked out at 0.0643.

As for MGESLFKGPRDYNPISSSICHLTNESDGHTTSLYGIGFGPFIITNKHLFRRNNGTLVVQSLHGVFKVKDTTTLQQHLVDGRDMIIIRMPKDFPPFPQKLKFREPQREERICLVTTNFQTKSMSSMVSDTSCTFPSGDGIFWKHWIQTKDGQCGSPLVSTRDGFIVGIHSASNFTNTNNYFTSVPKNFMELLTNQEAQQWVSGWRLNADSVAWGGHKVFMVKPEEPFQPVKEATQL [L211A], the “area with substrate ENLCFQS” value came out at 0.0791, the “area with substrate ENLDFQS” value was determined as 0.0626, the “area with substrate ENLFFQS” value amounted to 0.0715 and the “area with substrate ENLKFQS” value is 0.0758. In addition, the “area with substrate ENLNFQS” value stood at 0.0636 and the “area with substrate ENLQFQS” value came out at 0.0785.

Regarding MGESLFKGPRDYNPISSSICHLTNESDGHTTSLYGIGFGPFIITNKHLFRRNNGTLVVQSLHGVFKVKDTTTLQQHLVDGRDMIIIRMPKDFPPFPQKLKFREPQREERICLVTTNFQTKSMSSMVSDTSCTFPSGDGIFWKHWIQTKDGQCGSPLVSTRDGFIVGIHSASNFTNTNNYFTSVPKNFMELLTNQEAQQWVSGWRLNADSVLWGGHKVFMVKPEEPFQPVKFATQL [E231F], the “area with substrate ENLCFQS” value is 0.0607, the “area with substrate ENLDFQS” value is 0.0805, the “area with substrate ENLHFQS” value was found to be 0.0782 and the “area with substrate ENLKFQS” value is 0.0703. The “area with substrate ENLLFQS” value was found to be 0.0851, the “area with substrate ENLQFQS” value turned out to be 0.0646, the “area with substrate ENLSFQS” value is 0.0504 and the “area with substrate ENLVFQS” value turned out to be 0.0763.

As to MGESLFKGPRDYNPISSSICHLTNESDGHTTSLYGIGFGPFIITNKHLFRRNNGTLVVQSLHGVFKVKDTTTLQQHLVDGRDMIIIRMPKDFPPFPQKLKFREPQREERICLVTTNFQTKSMSSMVSDTSCTFPSGDGIFWKHWIQTKDGQCGSPLVSTRDGFIVGIHSASNFTNTNNYFTSVPKNFMELLTNQEAQQWVSGWRLNQDSVLWGGHKVFMVKPEEPFQPVKEATQL [A207Q], the “area with substrate ENLCFQS” value stood at 0.0702, the “area with substrate ENLDFQS” value is 0.0786, the “area with substrate ENLFFQS” value turned out to be 0.103 and the “area with substrate ENLIFQS” value is 0.0746. Besides, the “area with substrate ENLLFQS” value worked out at 0.0519 and the “area with substrate ENLRFQS” value was determined as 0.0621.

On to MGESLFKGPRDYNPISSSICHLTNESDGHTTSLAGIGFGPFIITNKHLFRRNNGTLVVQSLHGVFKVKDTTTLQQHLVDGRDMIIIRMPKDFPPFPQKLKFREPQREERICLVTTNFQTKSMSSMVSDTSCTFPSGDGIFWKHWIQTKDGQCGSPLVSTRDGFIVGIHSASNFTNTNNYFTSVPKNFMELLTNQEAQQWVSGWRLNADSVLWGGHKVFMVKPEEPFQPVKEATQL [Y34A], for which the “area with substrate ENLDFQS” value was determined as 0.0643, the “area with substrate ENLFFQS” value came to 0.0517, the “area with substrate ENLHFQS” value worked out at 0.0559 and the “area with substrate ENLLFQS” value was found to be 0.0738. The “area with substrate ENLMFQS” value is 0.0767, the “area with substrate ENLSFQS” value amounted to 0.0594 and the “area with substrate ENLTFQS” value worked out at 0.0607.

Consider MGESLFKGPRDYNPISSSICHLTNESDGHTTSLSGIGFGPFIITNKHLFRRNNGTLVVQSLHGVFKVKDTTTLQQHLVDGRDMIIIRMPKDFPPFPQKLKFREPQREERICLVTTNFQTKSMSSMVSDTSCTFPSGDGIFWKHWIQTKDGQCGSPLVSTRDGFIVGIHSASNFTNTNNYFTSVPKNFMELLTNQEAQQWVSGWRLNADSVLWGGHKVFMVKPEEPFQPVKEATQL [Y34S], for which the “area with substrate ENLDFQS” value turned out to be 0.0639, the “area with substrate ENLEFQS” value was 0.0073, the “area with substrate ENLFFQS” value was found to be 0.0636 and the “area with substrate ENLGFQS” value turned out to be 0.103. Besides, the “area with substrate ENLHFQS” value was 0.0635, the “area with substrate ENLIFQS” value was 0.065, the “area with substrate ENLKFQS” value came out at 0.0084 and the “area with substrate ENLNFQS” value was determined as 0.0609. Further, the “area with substrate ENLPFQS” value is 0.0471, the “area with substrate ENLRFQS” value amounted to 0.0683 and the “area with substrate ENLWFQS” value is 0.0468.
